Laboratory results reported in the supplement of paper PMC3334620.
The full ranking holds about 33,000 sequences; the median of “E-score (-0.5 to 0.5)” is about -0.041, and the highest 2% start at about 0.37. Some of the results follow.

molecular target: T1, Ecm22 (UniProt Q05958); experiment: PBM E-score (8-mer binding enrichment) (E-score (-0.5 to 0.5)); higher = stronger / more preferred TF binding; most listed sequences are background and not binding sites; conditions: protein concentration: 200 nM; construct: GST-full length
T1 sequence: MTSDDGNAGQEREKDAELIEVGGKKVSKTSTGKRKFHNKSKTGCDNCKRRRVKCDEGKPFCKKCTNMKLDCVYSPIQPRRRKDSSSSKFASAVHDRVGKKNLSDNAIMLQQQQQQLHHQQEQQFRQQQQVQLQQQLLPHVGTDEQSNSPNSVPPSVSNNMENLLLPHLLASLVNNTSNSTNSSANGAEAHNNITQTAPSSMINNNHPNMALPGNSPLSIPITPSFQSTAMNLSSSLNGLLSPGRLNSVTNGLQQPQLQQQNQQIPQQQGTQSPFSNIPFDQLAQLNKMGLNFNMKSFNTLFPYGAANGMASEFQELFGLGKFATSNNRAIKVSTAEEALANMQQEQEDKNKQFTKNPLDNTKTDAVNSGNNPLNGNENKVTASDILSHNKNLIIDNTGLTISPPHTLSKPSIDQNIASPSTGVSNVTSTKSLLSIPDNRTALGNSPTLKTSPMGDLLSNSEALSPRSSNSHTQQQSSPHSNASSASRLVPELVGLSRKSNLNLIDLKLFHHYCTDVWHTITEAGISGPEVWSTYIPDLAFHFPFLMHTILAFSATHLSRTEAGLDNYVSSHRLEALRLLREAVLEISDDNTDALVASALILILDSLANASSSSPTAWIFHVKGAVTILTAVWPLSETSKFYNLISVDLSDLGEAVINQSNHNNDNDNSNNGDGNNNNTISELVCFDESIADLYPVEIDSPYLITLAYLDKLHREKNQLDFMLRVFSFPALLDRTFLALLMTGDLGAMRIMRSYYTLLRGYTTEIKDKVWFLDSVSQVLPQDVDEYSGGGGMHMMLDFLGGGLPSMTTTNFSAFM
In short: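 E-scores (a modified Wilcoxon-Mann-Whitney statistic) were assigned by the Universal PBM Analysis Suite to every ungapped eight-base word pooled with its reverse complement. The input came from universal all-10-mer Agilent arrays made double-stranded by primer extension and probed with GST-tagged yeast transcription factors at about 100-200 nM. Fluorescent anti-GST detected bound protein, and masliner normalised the scans.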

Point of comparison: GGGACACC, “PBM E-score” value -0.162. Against it:
- CTTTAAAG — lower, -0.17
- CATGTCAG — lower, -0.35
- CTGTCACC — higher, -0.15
- AGTTGACG — higher, -0.0407
- AGTGAGCC — lower, -0.242
- GATCAAAC — higher, 0.169
- GAAGCCTA — higher, -0.0357
- TCAGCCCA — lower, -0.182
- CATCACTC — higher, -0.0911
- ACATATTA — higher, 0.0131
- CTGGTAAG — higher, -0.0136
- AAGAGGAA — higher, -0.0606
- AGGTTTGA — higher, -0.0857
- GGCGGTAC — higher, 0.179
- GATGCGCA — higher, -0.147
- ATGTGTGG — lower, -0.227
- TCAGCGCA — lower, -0.208
- ACAAATAT — higher, 0.0544
- GGAGCGTA — higher, 0.174
- TCTCTCAA — higher, -0.0797
- AGACAACA — higher, 0.0125
- AAACTAAC — higher, 0.139
- AAGACACC — higher, -0.0175
- ATTAGTCC — higher, -0.141
- ACTCGTTA — higher, 0.348
- GGTGTAGA — higher, -0.102
- AGCACCGG — higher, -0.149
- ATCTCCAC — higher, -0.101
- AATAAAAT — lower, -0.165
- GCCTGGCA — lower, -0.318
- GATTCCCA — higher, -0.144
- AAGCGTTC — higher, -0.0157
- AGCATCCT — higher, -0.0208
- AGACATCT — higher, 0.0773
- AAAGCTTA — higher, -0.042
- ACAACCAA — higher, -0.143
- GAGCATAC — higher, 0.0872
- AGTCCCAC — lower, -0.192
- CGAATTCC — higher, 0.212
- ATGCAATA — lower, -0.167
- GCAACAAC — higher, 0.0235
- CGAAATAA — higher, 0.198
- TCACTTCA — lower, -0.32
- CTCAGCCA — lower, -0.185
- TAATAAAA — higher, -0.115
- CACACCCG — higher, 0.085
- GCCAAAAC — lower, -0.214
- CTGATTTC — higher, 0.0764
- CAGGGCCA — lower, -0.165
- ACGATCCT — higher, 0.255
- AACGCTAT — higher, 0.0555
- ACTGTCCC — higher, -0.0917
- AAGAGGGC — lower, -0.297
- TAGTCGCA — higher, 0.0835
- CGAATGCG — higher, 0.294
- ATCGACCC — higher, -0.0324
- GGCTGTAC — higher, 0.0838
- GGGCTGCA — lower, -0.172
- AAGGATGG — higher, -0.0229
- GGTAATGA — higher, -0.0284
- CAAATTAG — higher, 0.0376
- AAATGTTA — higher, -0.137
- GATGCGGA — higher, -0.0372
- CGTCCGCC — higher, -0.111
- CCAGATCA — higher, -0.129
- GGGTGCAC — higher, -0.156
- CCTGGAAC — higher, 0.0615
- ATAATACC — higher, 0.0219
- GTCTCTCA — higher, -0.0854
- AGGTCAAC — higher, -0.0536
- CCTGGCCA — lower, -0.235
- GCTAGAAC — higher, -0.156
- ATCGTCGA — higher, -0.0956
- ACCGATAG — higher, 0.0873
- CCGGACCG — higher, 0.157
- TACAAAGA — higher, 0.126
- AGCAATCC — lower, -0.186
- GCTTGAAC — higher, 0.148
- CCGGCGGA — higher, -0.135
- CATCAGAG — higher, -0.126
- CTCGGGAC — higher, 0.101
- ACGGTGCA — higher, 0.205
- ACTGGGCG — lower, -0.237
- TACTGTGA — higher, 0.0305
- ACGTTGTA — higher, 0.0925
- CAAGTGCC — lower, -0.23
- TCAAGGCA — lower, -0.337
- GCAATGGC — lower, -0.202
- CCTCGGAG — higher, -0.0375
- AGCCAGAA — lower, -0.255
- AGACAGTC — higher, -0.0903
- AACTGAAG — higher, 0.00501
- CAATATTC — higher, 0.00068
- ATGCGGGG — lower, -0.176
- CCAGGAAC — higher, 0.0894
- CTCATTTA — higher, -0.0637
- CAGGATAA — higher, 0.0292
- AGGTCCAA — lower, -0.196
- AACGGATT — higher, 0.195
- CGCAAGAC — higher, -0.0635
- AGGAGACG — higher, 0.0819
- GCGGGATA — higher, 0.12
- ATACATAA — higher, 0.00156
- GCCATATA — higher, 0.0904
- CCACACAG — higher, -0.118
- CTTAAGTA — higher, -0.0092
- CCAATTCA — higher, -0.0121
- GGTAAATA — higher, -0.0365
- CCTGTACA — lower, -0.174
- ACGGAGGG — higher, 0.167
- CATGTGCA — lower, -0.197
- AGCATGGC — lower, -0.175
- AGTTACCA — higher, -0.0635
- GCTAGACC — higher, -0.161
- CATAGAAA — higher, 0.0585
- GTTACGTA — higher, 0.146
- ATGCAGGA — higher, -0.144
- AGCTCCCT — higher, -0.0989
- GCTCTGGA — higher, 0.0517
- AGCGATCC — higher, 0.0541
- CAGGCATG — lower, -0.342
- AACGATGT — higher, 0.396
- CAGCGACG — higher, -0.028
- CCAAAGAC — lower, -0.255
- ATAACCAG — higher, -0.0139
- ATCGCCAG — higher, -0.0629
- AAGCGTAG — higher, -0.011
- AATGAGAT — higher, -0.0616
- GTAGATAA — higher, 0.0425
- ATATCAGA — higher, -0.0265
- TCCTCCGA — higher, -0.0815
- CGTGTTTC — higher, -0.0946
- TCGCCGAA — higher, 0.107
- ACACAAGT — higher, 0.0206
- TAAGTCCA — higher, -0.146
- CCAGATGC — higher, -0.128
- ATTCTCTA — higher, -0.0255
- GACGCCCC — higher, -0.0249
- GATCGTCA — higher, -0.114
- GGTTTATA — higher, 0.152
- AAGAGCAG — lower, -0.219
- ACTCGGAT — higher, 0.318
- AAGCTATG — higher, -0.0404
- GCACAACA — higher, -0.133
- TCGCTCCA — higher, 0.311
- ACCACTGC — lower, -0.25
- GGTCGCTA — higher, 0.157
- AGGACGCA — higher, -0.0759
- CCCCGCGG — higher, -0.0464
- CCGGTGTC — lower, -0.166
- ACTTGGTG — higher, -0.156
- ACAGCGTG — higher, -0.00986
- AGAGAACT — higher, 0.0722
- CGCACGAA — higher, 0.175
- AGCCCGAA — higher, -0.104
- CAAGTCGA — higher, -0.158
- GACTTCAA — lower, -0.197
- CATTTTAA — lower, -0.2
- CCGCGATA — higher, 0.206
- AGCTCCAG — higher, -0.0176
- GCCGGTTA — higher, 0.0824
- GCACGAGA — higher, 0.127
- CACGTGAC — higher, -0.157
- CAATTAGA — higher, 0.0315
- AATAATCA — higher, 0.11
- CTCTTCAC — higher, -0.00606
- CCATCGGC — higher, -0.091
- GCTTTTGA — higher, -0.115
- CATCATGG — lower, -0.191
- ACGTGAGT — higher, -0.116
- GAAGTATC — higher, 0.0371
